Results are given in words; binding and its absence hold for the method and conditions named. In cells and extracts the contact can be indirect. Some binding calls cover weakened binding; strength is not graded here. For part of these data: Where a sequence is shown, tags or fusion partners need not be part of it. Blank lines part the entries; values can stand above or below the molecule they belong to.
Assays:
Caf1-Myc (S. cerevisiae) [1] = biological target: T1, Caf1-Myc (S. cerevisiae) (UniProt P39008); assay: co-IP; data not shown: interaction of Mlp1 and Caf1 after RNase treatment; RNase experiments used extracts of cells expressing Caf1-Myc
T1 sequence: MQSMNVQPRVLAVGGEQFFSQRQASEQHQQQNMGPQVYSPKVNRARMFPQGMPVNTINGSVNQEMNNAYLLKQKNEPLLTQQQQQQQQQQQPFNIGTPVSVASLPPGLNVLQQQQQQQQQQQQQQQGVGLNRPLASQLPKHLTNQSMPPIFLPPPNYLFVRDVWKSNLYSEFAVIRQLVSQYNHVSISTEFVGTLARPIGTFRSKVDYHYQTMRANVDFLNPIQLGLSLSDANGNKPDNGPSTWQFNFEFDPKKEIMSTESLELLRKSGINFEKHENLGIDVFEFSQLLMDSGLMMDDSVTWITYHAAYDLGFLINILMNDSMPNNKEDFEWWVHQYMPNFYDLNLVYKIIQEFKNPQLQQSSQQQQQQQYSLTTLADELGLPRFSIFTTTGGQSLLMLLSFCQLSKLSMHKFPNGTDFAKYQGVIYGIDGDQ

Chains of the proteins cited; added tags and fusions are not shown.
UniProt P25655: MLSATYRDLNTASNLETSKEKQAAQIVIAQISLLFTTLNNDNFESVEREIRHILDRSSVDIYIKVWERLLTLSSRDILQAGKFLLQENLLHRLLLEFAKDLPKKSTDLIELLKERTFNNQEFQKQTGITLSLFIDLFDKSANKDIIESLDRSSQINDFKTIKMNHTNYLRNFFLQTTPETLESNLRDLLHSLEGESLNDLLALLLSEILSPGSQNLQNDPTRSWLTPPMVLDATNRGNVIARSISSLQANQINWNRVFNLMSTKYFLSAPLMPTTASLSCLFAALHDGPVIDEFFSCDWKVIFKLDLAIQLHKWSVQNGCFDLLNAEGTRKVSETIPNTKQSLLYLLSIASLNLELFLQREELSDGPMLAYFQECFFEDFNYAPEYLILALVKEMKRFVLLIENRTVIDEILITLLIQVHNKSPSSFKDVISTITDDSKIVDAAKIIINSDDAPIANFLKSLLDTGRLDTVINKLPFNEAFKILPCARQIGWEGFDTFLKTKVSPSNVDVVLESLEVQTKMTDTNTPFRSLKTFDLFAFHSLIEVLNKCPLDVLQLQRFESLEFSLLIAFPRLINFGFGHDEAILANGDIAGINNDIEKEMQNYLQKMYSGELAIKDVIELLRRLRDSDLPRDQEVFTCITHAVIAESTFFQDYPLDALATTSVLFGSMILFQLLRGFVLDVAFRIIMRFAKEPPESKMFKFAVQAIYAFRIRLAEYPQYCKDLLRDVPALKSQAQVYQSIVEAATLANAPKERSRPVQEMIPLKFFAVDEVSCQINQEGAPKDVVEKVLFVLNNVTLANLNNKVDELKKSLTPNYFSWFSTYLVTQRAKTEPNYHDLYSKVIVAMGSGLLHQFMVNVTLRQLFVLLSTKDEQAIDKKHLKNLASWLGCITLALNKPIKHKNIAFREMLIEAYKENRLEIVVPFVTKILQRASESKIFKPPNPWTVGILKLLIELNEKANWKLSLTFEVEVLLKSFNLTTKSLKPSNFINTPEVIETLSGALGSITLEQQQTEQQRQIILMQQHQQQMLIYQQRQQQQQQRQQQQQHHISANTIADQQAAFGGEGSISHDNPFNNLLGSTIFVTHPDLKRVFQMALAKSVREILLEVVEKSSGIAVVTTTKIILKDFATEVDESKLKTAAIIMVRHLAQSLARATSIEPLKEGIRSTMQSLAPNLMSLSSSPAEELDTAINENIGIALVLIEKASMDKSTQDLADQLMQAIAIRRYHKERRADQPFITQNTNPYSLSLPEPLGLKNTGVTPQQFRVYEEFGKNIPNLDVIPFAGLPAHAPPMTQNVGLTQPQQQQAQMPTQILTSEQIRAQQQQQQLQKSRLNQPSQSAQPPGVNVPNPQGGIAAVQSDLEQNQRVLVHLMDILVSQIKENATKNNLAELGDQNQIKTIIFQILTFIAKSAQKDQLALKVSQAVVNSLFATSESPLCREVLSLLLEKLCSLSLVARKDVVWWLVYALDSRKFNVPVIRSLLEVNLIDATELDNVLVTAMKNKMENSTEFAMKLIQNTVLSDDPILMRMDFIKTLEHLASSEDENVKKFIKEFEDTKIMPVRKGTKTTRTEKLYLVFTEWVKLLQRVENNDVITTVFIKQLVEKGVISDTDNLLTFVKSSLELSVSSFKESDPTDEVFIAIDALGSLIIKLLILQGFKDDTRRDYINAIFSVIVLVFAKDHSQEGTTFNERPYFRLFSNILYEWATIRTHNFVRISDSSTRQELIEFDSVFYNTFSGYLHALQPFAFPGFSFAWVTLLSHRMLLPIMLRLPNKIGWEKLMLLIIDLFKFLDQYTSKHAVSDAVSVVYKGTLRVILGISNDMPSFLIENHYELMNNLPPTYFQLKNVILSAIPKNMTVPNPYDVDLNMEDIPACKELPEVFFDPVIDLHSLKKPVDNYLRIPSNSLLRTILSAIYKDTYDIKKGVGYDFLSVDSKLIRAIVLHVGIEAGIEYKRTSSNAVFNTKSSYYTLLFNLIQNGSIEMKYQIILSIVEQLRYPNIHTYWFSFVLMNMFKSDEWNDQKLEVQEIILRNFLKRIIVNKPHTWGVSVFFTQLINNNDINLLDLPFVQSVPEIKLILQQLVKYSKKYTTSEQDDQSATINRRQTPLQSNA
UniProt Q02455: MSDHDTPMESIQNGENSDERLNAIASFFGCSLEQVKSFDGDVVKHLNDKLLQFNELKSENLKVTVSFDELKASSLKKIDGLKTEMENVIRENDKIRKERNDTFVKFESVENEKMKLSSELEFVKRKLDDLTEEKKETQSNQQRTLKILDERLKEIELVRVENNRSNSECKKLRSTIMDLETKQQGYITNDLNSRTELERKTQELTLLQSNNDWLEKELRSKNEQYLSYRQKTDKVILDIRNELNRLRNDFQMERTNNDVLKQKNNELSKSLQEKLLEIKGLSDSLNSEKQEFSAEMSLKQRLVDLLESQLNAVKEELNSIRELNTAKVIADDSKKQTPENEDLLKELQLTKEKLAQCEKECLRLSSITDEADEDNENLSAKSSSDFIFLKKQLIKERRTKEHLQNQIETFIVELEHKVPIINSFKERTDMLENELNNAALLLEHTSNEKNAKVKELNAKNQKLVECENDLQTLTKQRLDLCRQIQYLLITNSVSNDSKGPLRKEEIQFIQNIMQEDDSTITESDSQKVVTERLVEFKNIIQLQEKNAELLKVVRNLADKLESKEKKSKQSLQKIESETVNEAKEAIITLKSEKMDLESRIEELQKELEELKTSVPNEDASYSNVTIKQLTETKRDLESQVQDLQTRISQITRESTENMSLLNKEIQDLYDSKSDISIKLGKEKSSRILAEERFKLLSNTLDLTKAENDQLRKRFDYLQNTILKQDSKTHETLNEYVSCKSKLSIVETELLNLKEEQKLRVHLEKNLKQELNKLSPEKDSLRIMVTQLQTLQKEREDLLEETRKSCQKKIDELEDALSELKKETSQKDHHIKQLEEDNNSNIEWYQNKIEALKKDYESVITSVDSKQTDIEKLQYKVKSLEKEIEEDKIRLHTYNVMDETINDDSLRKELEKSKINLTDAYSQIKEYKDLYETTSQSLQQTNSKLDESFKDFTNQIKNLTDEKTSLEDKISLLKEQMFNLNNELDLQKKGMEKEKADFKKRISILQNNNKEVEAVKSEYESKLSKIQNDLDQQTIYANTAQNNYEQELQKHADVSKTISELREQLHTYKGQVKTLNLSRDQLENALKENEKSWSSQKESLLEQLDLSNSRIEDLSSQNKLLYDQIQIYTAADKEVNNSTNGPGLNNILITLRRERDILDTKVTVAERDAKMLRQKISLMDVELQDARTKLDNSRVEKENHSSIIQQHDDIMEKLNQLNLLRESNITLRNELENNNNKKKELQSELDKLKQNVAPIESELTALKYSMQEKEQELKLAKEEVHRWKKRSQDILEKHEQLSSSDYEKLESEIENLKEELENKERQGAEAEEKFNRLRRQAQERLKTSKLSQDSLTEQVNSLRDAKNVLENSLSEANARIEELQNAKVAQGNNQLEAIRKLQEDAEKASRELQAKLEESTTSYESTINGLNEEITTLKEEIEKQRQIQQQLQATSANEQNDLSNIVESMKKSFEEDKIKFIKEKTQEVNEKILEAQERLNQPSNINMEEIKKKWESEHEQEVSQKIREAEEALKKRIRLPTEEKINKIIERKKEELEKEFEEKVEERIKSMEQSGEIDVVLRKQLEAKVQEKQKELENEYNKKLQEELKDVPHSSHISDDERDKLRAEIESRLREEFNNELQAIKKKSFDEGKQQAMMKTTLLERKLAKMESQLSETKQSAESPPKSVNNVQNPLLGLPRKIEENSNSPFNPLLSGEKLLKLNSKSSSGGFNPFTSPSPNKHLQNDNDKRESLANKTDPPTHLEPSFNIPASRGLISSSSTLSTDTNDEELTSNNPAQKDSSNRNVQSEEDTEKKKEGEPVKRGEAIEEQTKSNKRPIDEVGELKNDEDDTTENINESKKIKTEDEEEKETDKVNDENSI

Caf1-Myc (S. cerevisiae) [2] = biological target: T1, Caf1-Myc (S. cerevisiae); assay: co-IP; data not shown: α-Myc immunoprecipitation of Caf1-Myc after treating the lysate with RNase A; Nab2 detected
Caf1-Myc (S. cerevisiae) [3] = biological target: T1, Caf1-Myc (S. cerevisiae); assay: co-IP; α-Myc immunoprecipitation of the Myc-tagged Ccr4-Not subunit from 500 µg yeast whole-cell extract (10 mM Tris pH 8.0, 150 mM NaCl, 0.1% Nonidet P-40, 10% glycerol, 1 mM DTT), 4°C; immunoblot with α-Nab2 or α-Hrp1; Caf1-Hrp1 also after RNase A (0.105 U/µL, 10 min at 37°C) and in hmt1Δ cells carrying the HMT1 plasmid
Ccr4-Myc (S. cerevisiae) = biological target: T2, Ccr4-Myc (S. cerevisiae) (UniProt P31384); assay: as above
T2 sequence: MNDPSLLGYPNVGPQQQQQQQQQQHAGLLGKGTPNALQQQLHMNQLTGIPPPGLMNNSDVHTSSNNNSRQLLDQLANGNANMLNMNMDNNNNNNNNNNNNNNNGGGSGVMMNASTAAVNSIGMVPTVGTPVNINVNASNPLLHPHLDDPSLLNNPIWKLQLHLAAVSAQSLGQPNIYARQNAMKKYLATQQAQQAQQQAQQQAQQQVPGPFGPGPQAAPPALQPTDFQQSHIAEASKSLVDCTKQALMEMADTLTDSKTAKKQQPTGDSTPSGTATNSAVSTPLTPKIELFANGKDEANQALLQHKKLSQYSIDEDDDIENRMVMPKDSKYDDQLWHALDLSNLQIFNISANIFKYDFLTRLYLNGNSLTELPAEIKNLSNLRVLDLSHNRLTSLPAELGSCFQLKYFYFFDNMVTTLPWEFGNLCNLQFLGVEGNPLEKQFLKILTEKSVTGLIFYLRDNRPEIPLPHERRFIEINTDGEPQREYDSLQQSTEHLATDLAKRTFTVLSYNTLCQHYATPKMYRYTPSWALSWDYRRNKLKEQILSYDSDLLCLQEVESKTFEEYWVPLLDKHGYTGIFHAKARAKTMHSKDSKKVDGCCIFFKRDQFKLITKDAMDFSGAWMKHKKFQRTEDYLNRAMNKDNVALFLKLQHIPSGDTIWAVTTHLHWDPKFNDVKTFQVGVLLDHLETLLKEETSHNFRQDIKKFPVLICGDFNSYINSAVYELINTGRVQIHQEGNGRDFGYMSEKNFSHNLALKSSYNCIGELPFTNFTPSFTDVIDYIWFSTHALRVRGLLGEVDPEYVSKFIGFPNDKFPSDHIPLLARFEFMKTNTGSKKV

[4] = biological target: Not1-Myc (NOT1-MYC13) (S. cerevisiae) (UniProt P25655); assay: as above
Not2-Myc (S. cerevisiae) = biological target: T3, Not2-Myc (S. cerevisiae) (UniProt P06100); assay: as above
T3 sequence: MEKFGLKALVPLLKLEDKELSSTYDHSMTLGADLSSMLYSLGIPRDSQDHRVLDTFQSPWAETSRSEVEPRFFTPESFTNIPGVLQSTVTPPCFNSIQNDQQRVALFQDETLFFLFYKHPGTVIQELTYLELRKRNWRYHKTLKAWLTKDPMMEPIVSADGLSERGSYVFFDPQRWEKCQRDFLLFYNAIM

Not5-Myc (S. cerevisiae) = biological target: T4, Not5-Myc (S. cerevisiae) (UniProt Q12514); assay: as above
T4 sequence: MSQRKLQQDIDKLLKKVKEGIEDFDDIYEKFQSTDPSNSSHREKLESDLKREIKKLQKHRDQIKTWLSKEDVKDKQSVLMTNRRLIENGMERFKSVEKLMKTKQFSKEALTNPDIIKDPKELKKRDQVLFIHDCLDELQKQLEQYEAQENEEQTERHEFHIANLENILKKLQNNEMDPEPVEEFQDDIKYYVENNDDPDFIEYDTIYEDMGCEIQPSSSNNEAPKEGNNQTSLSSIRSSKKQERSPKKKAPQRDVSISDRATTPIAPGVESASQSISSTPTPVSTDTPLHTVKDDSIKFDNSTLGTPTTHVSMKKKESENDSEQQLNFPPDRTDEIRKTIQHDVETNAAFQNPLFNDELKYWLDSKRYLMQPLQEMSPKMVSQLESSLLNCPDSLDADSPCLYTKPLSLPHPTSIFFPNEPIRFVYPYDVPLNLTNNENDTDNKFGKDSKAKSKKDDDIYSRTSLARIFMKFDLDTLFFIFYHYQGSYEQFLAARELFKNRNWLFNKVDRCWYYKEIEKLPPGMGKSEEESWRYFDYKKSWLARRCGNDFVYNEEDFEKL

[5] = biological target: T5, Not4 (Myc-tagged) (S. cerevisiae) (UniProt P34909); assay: as above
T5 sequence: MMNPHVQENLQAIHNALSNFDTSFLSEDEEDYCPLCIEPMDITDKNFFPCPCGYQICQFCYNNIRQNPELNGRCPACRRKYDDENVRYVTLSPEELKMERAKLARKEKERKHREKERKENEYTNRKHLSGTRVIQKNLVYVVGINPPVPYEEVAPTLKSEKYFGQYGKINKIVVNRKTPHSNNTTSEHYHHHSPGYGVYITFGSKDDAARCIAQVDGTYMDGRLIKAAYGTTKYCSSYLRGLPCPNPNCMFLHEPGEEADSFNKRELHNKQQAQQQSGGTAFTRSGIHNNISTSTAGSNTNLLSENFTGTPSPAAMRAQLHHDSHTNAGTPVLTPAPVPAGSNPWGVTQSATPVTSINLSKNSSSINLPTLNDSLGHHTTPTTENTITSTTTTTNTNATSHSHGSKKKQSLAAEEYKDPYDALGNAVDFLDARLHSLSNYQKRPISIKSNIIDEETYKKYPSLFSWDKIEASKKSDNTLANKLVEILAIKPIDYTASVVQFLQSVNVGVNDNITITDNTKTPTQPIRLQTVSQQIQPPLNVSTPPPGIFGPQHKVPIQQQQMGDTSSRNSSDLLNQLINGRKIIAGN

binding (Caf1-Myc (S. cerevisiae) [1]): binds
Molecule: Mlp1 (from UniProt Q02455 1-1875)

binding (Caf1-Myc (S. cerevisiae) [2]): binds
binding (Caf1-Myc (S. cerevisiae) [3]): binds
binding (Ccr4-Myc (S. cerevisiae)): binds
binding [4]: no binding
binding (Not2-Myc (S. cerevisiae)): no binding
binding (Not5-Myc (S. cerevisiae)): binds
B1: Nab2 (protein, UniProt P32505 1-525)
chain: MSQEQYTENLKVIVAEKLAGIPNFNEDIKYVAEYIVLLIVNGGTVESVVDELASLFDSVSRDTLANVVQTAFFALEALQQGESAENIVSKIRMMNAQSLGQSDIAQQQQQQQQQQQPDIAQQQPQQQPQQQPQQQPQQQPQQQPQQQPQQQPQQQPQLQPLQPQLGTQNAMQTDAPATPSPISAFSGVVNAAAPPQFAPVDNSQRFTQRGGGAVGKNRRGGRGGNRGGRNNNSTRFNPLAKALGMAGESNMNFTPTKKEGRCRLFPHCPLGRSCPHAHPTKVCNEYPNCPKPPGTCEFLHPNEDEELMKEMERTREEFQKRKADLLAAKRKPVQTGIVLCKFGALCSNPSCPFGHPTPANEDAKVIDLMWCDKNLTCDNPECRKAHSSLSKIKEVKPISQKKAAPPPVEKSLEQCKFGTHCTNKRCKYRHARSHIMCREGANCTRIDCLFGHPINEDCRFGVNCKNIYCLFRHPPGRVLPEKKGAAPNSNVPTNERPFALPENAIIENAPPQTSFTHQEQDTEMN
modifications: arginine methylation by Hmt1 (sites not given)

binding (Ccr4-Myc (S. cerevisiae)): binds
binding [4]: binds
binding (Not2-Myc (S. cerevisiae)): binds
binding [5]: binds
binding (Not5-Myc (S. cerevisiae)): binds
B2: Hrp1 (protein, UniProt Q99383 1-534)
chain: MSSDEEDFNDIYGDDKPTTTEEVKKEEEQNKAGSGTSQLDQLAALQALSSSLNKLNNPNSNNSSSNNSNQDTSSSKQDGTANDKEGSNEDTKNEKKQESATSANANANASSAGPSGLPWEQLQQTMSQFQQPSSQSPPQQQVTQTKEERSKADLSKESCKMFIGGLNWDTTEDNLREYFGKYGTVTDLKIMKDPATGRSRGFGFLSFEKPSSVDEVVKTQHILDGKVIDPKRAIPRDEQDKTGKIFVGGIGPDVRPKEFEEFFSQWGTIIDAQLMLDKDTGQSRGFGFVTYDSADAVDRVCQNKFIDFKDRKIEIKRAEPRHMQQKSSNNGGNNGGNNMNRRGGNFGNQGDFNQMYQNPMMGGYNPMMNPQAMTDYYQKMQEYYQQMQKQTGMDYTQMYQQQMQQMAMMMPGFAMPPNAMTLNQPQQDSNATQGSPAPSDSDNNKSNDVQTIGNTSNTDSGSPPLNLPNGPKGPSQYNDDHNSGYGYNRDRGDRDRNDRDRDYNHRSGGNHRRNGRGGRGGYNRRNNGYHPYNR
modifications: arginine methylation by Hmt1 (sites not given)

Source: PMC3065485
